# Measurements: patent publication US11542275B2, “Substituted imidazolidin-2-one derivatives as PRMT5 inhibitors” (Aurigene Discovery Technologies Limited, priority 2018, dated 2023)
# Target: PRMT5/MEP50 Complex (Homo sapiens (Human), UniProt O14744)
# Assay: PRMT5 inhibition based on TR-FRET assay
# Format: biochemical
# Details: 32 nM PRMT5:MEP50 complex, 50 nM Histone-H4 peptide, 1 μM SAM, 90 minutes at room temperature
# Excerpt: Protein arginine methyltransferase 5 (PRMT5) is a type II arginine methyltransferase that catalyze mono- and symmetric demethylation on arginine residues of histone or non-histone proteins in presence of S-adenosylmethionine (AdoMet or SAM) a cofactor responsible for donating the methyl group. PRMT5 is reported to be overexpressed in several human cancers. To identify compounds that inhibit the PRMT5 and decrease its activity, a TR-FRET based assay has been established. Time-resolved fluorescence resonance energy transfer (TR-FRET) HTS assays are homogeneous proximity assays where the interaction of two dye-labeled binding partners is detected by the energy transfer between a donor and an acceptor dye, and the subsequent light emission by the acceptor dye. PRMT5 catalyzes Histone H4 peptide which is biotin tagged to the Lysine amino acid at carboxyl end, in presence of S-adenosyl-1-methionine (SAM) to methylate the peptide. The antibody specific to mono methylated H4 peptide (H4R3) with Ig conjugate binds to the methylated peptide, indirectly binding to the Europium lanthanide. SureLight Allophycocyanin-Streptavidin binds to the biotin tag of the peptide, therefore accepting the energy transferred from the Europium lanthanide. This energy transfer between Europium to SureLight Allophycocyanin is a direct measure of the activity/inhibition of the PRMT5 enzyme.
# Assay buffer: 20 mM BICINE (pH 7.6), 25 mM NaCl, 2 mM DTT, 0.01% Tween-20 and 0.01% BSA.
# The compound dilutions were prepared as 7.5% DMSO stock solutions in assay buffer. To 2 μL (7.5×) of test compound, 5 μL of PRMT5 enzyme prepared in assay buffer (Final concentration of 32 nM in 15 μL reaction volume) was added and allowed for 30 minutes pre-incubation time in a white polystyrene 384-well plate at room temperature. […] The plates were then read on Victor-3 with Excitation at 340 nm and Emissions collected at 615 and 665 nm in TR-FRET protocol. […]
row,IC50 [µM],SMILES
1,0.018,"CC1(C(=O)N2CCC(c3ccc(CN4CCN(C[C@H](O)CN5CCc6ccccc6C5)C4=O)nc3)CC2)COC1 [Compound 53, (R)-1-(3-(3,4-dihydroisoquinolin-2(1H)-yl)-2-hydroxypropyl)-3-((5-(1-(3-methyloxetane-3-carbonyl)piperidin-4-yl)pyridin-2-yl)methyl)imidazolidin-2-one]"
2,0.059,"CC(C)Oc1cc(-c2ccc(CN3CCN(C[C@H](O)CN4CCc5ccccc5C4)C3=O)cn2)ccn1 [Compound 67, (R)-1-(3-(3,4-dihydroisoquinolin-2(1H)-yl)-2-hydroxypropyl)-3-((2′-isopropoxy-[2,4′-bipyridin]-5-yl)methyl)imidazolidin-2-one]"
3,0.066,"O=C1N(Cc2ccc(C3CCOCC3)nn2)CCN1C[C@H](O)CN1CCc2ccccc2C1 [Compound 51, (R)-1-(3-(3,4-dihydroisoquinolin-2(1H)-yl)-2-hydroxypropyl)-3-((6-(tetrahydro-2H-pyran-4-yl)pyridazin-3-yl)methyl)imidazolidin-2-one]"
